Several values for one entry are separate records, joined by “and”; a condition that tells them apart may be missing. Equal entries are not always repeated. This list was built around the results that the source calls inconclusive (neither active nor inactive); the mix of calls is not that of the screen. For part of these data: Potencies of inconclusive entries are doubtful fits and often do not repeat. Activity calls are given as the source filed them. Unless noted, calls follow the shape of the dose curve; as a rule, active = well fitted curve in the direction sought with a large enough effect in the repeat runs; inconclusive = weak or mixed curves; inactive = no such curve, though single readings can be large; an effect the other way counts as inactive or inconclusive.
Assays:
[1] = biological target: Progesterone receptor (Homo sapiens) (UniProt P06401); test: qHTS assay to identify small molecule agonists of the progesterone receptor (PR) signaling pathway (AID 1346784; calls by dose curve; also: nearly all actives have a fitted effect of over 30% in size; also: potency is read from the fitted curve at half-maximal effect; as to activation: % is scaled to controls: 0 for no effect and ±100 for the full control effect); details: PR-UAS-bla HEK293T, beta-lactamase FRET ratio, 16 h
In short: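 Cells (PR-UAS-bla HEK 293T, GripTite) were plated in assay medium containing 2% charcoal-stripped FBS and incubated 6 hr. Test compounds in DMSO were added for 16 hr at 37C. FRET substrate was then loaded for 2 hr at room temperature before fluorescence reading.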

[2] = biological target: Progesterone receptor (Homo sapiens) (UniProt P06401); test: qHTS assay to identify small molecule antagonists of the progesterone receptor (PR) signaling pathway (AID 1346795; active = well fitted inhibition curve with a large enough effect in the signal ratio in the repeat runs, not every such curve was filed as active; inconclusive = weak or mixed curves; the % refers to the signal ratio; also: potency is read from the fitted curve at half-maximal effect; as to activity change, negative = inhibition: % is scaled to controls: 0 for no effect and ±100 for the full control effect); details: PR-UAS-bla HEK293T, beta-lactamase FRET ratio, 16 h; activity change, negative = inhibition: at 92.4 µM (top of the series) unless noted
In short: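 Antagonist mode: compounds tested against 1 nM (final) promegestone stimulation in HEK293T cells expressing PR-UAS-bla reporter, 16 hr at 37C, 5% CO2; beta-lactamase activity detected via B/G FRET substrate after 2 hr at room temperature.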

[3] = qHTS assay to identify small molecule antagonists of the progesterone receptor (PR) signaling pathway - cell viability counter screen (AID 1346798); also: nearly all actives have a fitted effect of over 50% in size; also: potency is read from the fitted curve at half-maximal effect
In short: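 Counter screen for cytotoxicity: viability of PR-UAS-bla HEK293T cells was measured with CellTiter-Glo luminescence following 16 hr compound exposure in the presence of R5020.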

[4] = qHTS assay to identify small molecule agonists of the progesterone receptor (PR) signaling pathway - cell viability counter screen (AID 1346799; calls by dose curve; also: nearly all actives have a fitted effect of over 45% in size; also: potency is read from the fitted curve at half-maximal effect)
In short: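 Cells (PR-UAS-bla HEK293T) are plated at 3,000/well in 2% charcoal-stripped FBS medium, rested 6 hr, dosed and incubated 16 hr at 37C. CellTiter-Glo is then added and luminescence measured after 30 min at room temperature.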

[5] = qHTS assay to identify small molecule agonists of the TGF-beta/Smad signaling pathway - cell viability counter screen (AID 1346829); also: nearly all actives have a fitted effect of over 45% in size; also: potency is read from the fitted curve at half-maximal effect
In short: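 Here the cytotoxicity of library compounds is measured in SBE-bla HEK 293T cells treated for 5 hr, using CellTiter-Glo added to wells already read for the beta-lactamase reporter.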

[6] = qHTS assay to identify small molecule agonists of the TGF-beta/Smad signaling pathway (AID 1346859; active = well fitted activation curve with a large enough effect in the signal ratio in the repeat runs, not every such curve was filed as active; inconclusive = weak or mixed curves; the % refers to the signal ratio; also: potency is read from the fitted curve at half-maximal effect); details: SBE-bla HEK293T, TGF-beta/Smad beta-lactamase reporter, 5 h; activation: at 76.8 µM (top of the series)
In short: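 Reporter line: HEK 293T with stably integrated SBE-controlled beta-lactamase. Compound exposure lasts 5 hr at 37 C and 5% CO2; substrate loading follows for 2 hr at room temperature, with emission read at 460 and 530 nm.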

[7] = Human pregnane X receptor (PXR) small molecule agonists, qHTS cell viability counter screen (AID 1346977); also: potency is read from the fitted curve at half-maximal effect; nearly all actives have a fitted effect of over 50% in size
In short: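 Cytotoxicity counter screen run in the same wells as the PXR luciferase assay, using PXR-Luc HepG2 cells in charcoal-stripped serum medium. Viability: CellTiter-Fluor fluorescence after 24hr compound treatment.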

[8] = Caspase-3/7 induction in CHO-K1 cells by small molecules, qHTS cell viability counter screen (AID 1346979); also: nearly all actives have a fitted effect of over 35% in size; also: potency is read from the fitted curve at half-maximal effect
In short: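 Cytotoxicity counter screen run in parallel with the caspase-3/7 assay: CHO-K1 cells, 16hr compound treatment at 37C, then CellTiter-Fluor for 1hr before fluorescence reading.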

[9] = qHTS assay to identify small molecule antagonists of the TGF-beta/Smad signaling pathway (AID 1346924; active = well fitted inhibition curve with a large enough effect in the signal ratio in the repeat runs, not every such curve was filed as active; inconclusive = weak or mixed curves; the % refers to the signal ratio; also: potency is read from the fitted curve at half-maximal effect); details: SBE-bla HEK293T, TGF-beta/Smad reporter, beta-lactamase ratio
In short: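 SBE-bla HEK 293T cells were plated overnight, then received compound in DMSO plus TGF-beta1 (added as a 0.25 ng/mL solution) and were incubated 5 h at 37 C. Beta-lactamase reporter activity was read after 2 h at room temperature with LiveBLAzer B/G FRET substrate (ex 405, em 460/530 nm).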

[10] = Caspase-3/7 induction in CHO-K1 cells by small molecules, qHTS assay (AID 1346980); also: nearly all actives have a fitted effect of over 15% in size; also: potency is read from the fitted curve at half-maximal effect
In short: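 Luminescent Caspase-Glo 3/7 read (30min, room temperature) quantified apoptosis induction. Cells were wild-type CHO-K1, treated with compound for 17hr at 37 C and 5% CO2.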

[11] = qHTS assay to identify small molecule agonists of the estrogen receptor alpha (ER-alpha) signaling pathway in the presence of an antagonist - cell viability counter screen (AID 1259386);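 also: cells exposed to compounds for 22 h at 37 °C before the viability read; nearly all actives have a fitted effect of over 30% in size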; also: potency is read from the fitted curve at half-maximal effect
In short: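 VM7Luc4E2 cells (endogenous full-length ER-alpha, 4×ERE-luciferase) were held 5 days in phenol red-free medium with 10% charcoal-stripped FBS, plated, then given 10.0nM ICI-182,780 and compounds at 15 concentrations for 22hr at 37C; viability read by CellTiter-Fluor fluorescence.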

[12] = qHTS assay to identify small molecule antagonists of the TGF-beta/Smad signaling pathway - cell viability counter screen (AID 1346824); also: % is scaled to controls: 0 for no effect and ±100 for the full control effect; nearly all actives have a fitted effect of over 50% in size
In short: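 Cytotoxicity counter-screen run in the same wells as the beta-lactamase Smad reporter read: CellTiter-Glo luminescence after 30 min at room temperature. HEK 293T SBE-bla cells had 5 hr compound exposure at 37 C with TGF-beta1 (0.25 ng/mL stock).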

[13] = activation: at 92.4 µM (top of the series) unless noted
[14] = activity, negative = inhibition: at 76.8 µM (top of the series) unless noted
Tags tell the direction and shape of the fitted curve or compound fluorescence and quenching.

Sequence of UniProt P06401 (P06401 whole entry, looked up): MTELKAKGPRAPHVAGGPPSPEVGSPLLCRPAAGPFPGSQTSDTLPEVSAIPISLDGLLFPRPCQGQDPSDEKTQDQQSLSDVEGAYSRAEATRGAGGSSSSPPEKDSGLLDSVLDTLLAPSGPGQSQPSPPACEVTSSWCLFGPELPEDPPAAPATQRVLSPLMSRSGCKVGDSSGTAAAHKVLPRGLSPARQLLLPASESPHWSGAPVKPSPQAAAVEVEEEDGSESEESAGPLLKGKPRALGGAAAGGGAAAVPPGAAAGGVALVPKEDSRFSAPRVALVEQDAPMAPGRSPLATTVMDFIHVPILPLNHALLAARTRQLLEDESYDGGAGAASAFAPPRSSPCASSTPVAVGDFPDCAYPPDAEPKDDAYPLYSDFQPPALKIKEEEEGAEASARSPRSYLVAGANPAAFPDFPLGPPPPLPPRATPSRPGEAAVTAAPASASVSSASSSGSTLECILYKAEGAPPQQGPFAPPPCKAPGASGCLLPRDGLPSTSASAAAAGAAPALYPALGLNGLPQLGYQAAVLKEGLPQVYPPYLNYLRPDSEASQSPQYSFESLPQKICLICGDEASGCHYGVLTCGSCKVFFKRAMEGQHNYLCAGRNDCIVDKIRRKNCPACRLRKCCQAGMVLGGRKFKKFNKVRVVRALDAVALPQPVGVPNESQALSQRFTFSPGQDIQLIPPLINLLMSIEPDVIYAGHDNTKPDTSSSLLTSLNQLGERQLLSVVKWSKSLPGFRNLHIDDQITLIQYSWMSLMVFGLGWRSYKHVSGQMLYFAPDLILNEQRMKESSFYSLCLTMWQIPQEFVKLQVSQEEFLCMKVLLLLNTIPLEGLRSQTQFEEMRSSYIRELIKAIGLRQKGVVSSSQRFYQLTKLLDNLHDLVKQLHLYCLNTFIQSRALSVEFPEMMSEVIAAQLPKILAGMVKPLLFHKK

## O=[N+]([O-])c1cc([N+](=O)[O-])c2ccccc2c1
[1]; [13]
  Potency: inactive
[2]
  Potency: inconclusive: 26.5 µM
[3]
  Potency: inconclusive: 24.3 µM [rising, partial curve]
[4]
  Potency: inconclusive: 24.3 µM [rising, partial curve, poor fit]
[5]
  Potency: inconclusive: 7.76 µM [cytotoxic, single point]
[6]
  Potency: inconclusive: 43.6 µM [rising, partial curve, poor fit]
[7]
  Potency: inconclusive: 54.5 µM [cytotoxic]
[8]
  Potency: inconclusive: 63.5 µM [cytotoxic]

## CC1CCCC1
[1]; [13]
  Potency: active: 53.6 µM
[3]
  Potency: inactive
[6]
  Potency: inconclusive: 24.2 µM [rising, full curve]
[9]; [14]
  activity, negative = inhibition: inconclusive: -7.71%

## Clc1nc(Cl)nc(Cl)n1
[1]; [13]
  Potency: inactive
[3]
  Potency: inconclusive: 12 µM [cytotoxic, single point]
[8]
  Potency: inconclusive: 75.6 µM [cytotoxic, single point] and inactive
[10]
  Potency: inconclusive: 75.6 µM [activator, partial curve, poor fit]

## CCN(CC)CCOC(=O)C(C)(c1ccccc1)c1ccccc1
[11]
  Potency: inconclusive: 18.8 µM [cytotoxic, partial curve, poor fit]
[2]
  Potency: inactive
[7]
  Potency: inconclusive: 33.5 µM [cytotoxic, partial curve, poor fit]

## CC(=O)C(Cl)Cl
[2]
  Potency: inactive

## c1ccc(NNc2ccccc2)cc1
[11]
  Potency: inactive
[5]
  Potency: inactive

## N#CC(Cl)Cl
[1]; [13]
  Potency: active: 5.3 µM

## Cl[C@H]1OCCO[C@@H]1Cl
[11]
  Potency: inactive
[4]
  Potency: inactive
[10]
  Potency: inactive

## O=[N+]([O-])c1c(Cl)c(Cl)c(Cl)c(Cl)c1Cl
[1]; [13]
  Potency: inconclusive: 15.4 µM [rising, partial curve]
[4]
  Potency: inconclusive: 13.7 µM [cytotoxic, full curve]
[9]; [14]
  Potency: inconclusive: 49 µM [fluorescent]
  activity, negative = inhibition: inconclusive: 14.9%
[8]
  Potency: inconclusive: 68.2 µM [cytotoxic, single point]

## CC1(C)CON(Cc2ccccc2Cl)C1=O
[2]
  Potency: inconclusive: 61.1 µM [falling, partial curve]

## N#Cc1c2ccccc2cc2ccccc12
[1]; [13]
  Potency: inconclusive: 27.3 µM [fluorescent, single point]
[2]
  Potency: inconclusive: 68.5 µM [rising, single point]
[6]
  Potency: inconclusive: 54.8 µM [fluorescent, partial curve]
[8]
  Potency: inconclusive: 34.3 µM [rising, partial curve]

## COc1ccccc1OC
[1]; [13]
  Potency: inactive
[2]
  Potency: inactive
[9]; [14]
  activity, negative = inhibition: inconclusive: 4.53%

## O=C([O-])c1ccccn1.O=C([O-])c1ccccn1.O=C([O-])c1ccccn1.[Cr+3]
[2]
  activity change, negative = inhibition: inconclusive: 0.957%

## ClC1=C(Cl)[C@]2(Cl)[C@@H]3[C@H]4C[C@H]([C@@H]5O[C@H]45)[C@@H]3[C@@]1(Cl)C2(Cl)Cl
[11]
  Potency: inconclusive: 24.3 µM [rising, full curve]
[2]
  Potency: inconclusive: 6.85 µM [rising, full curve, poor fit]
[4]
  Potency: inconclusive: 1.22 µM [rising, full curve, poor fit]
[12]
  Potency: inactive
[7]
  Potency: inconclusive: 68.5 µM [cytotoxic, single point]

## CCOP(=S)(OCC)O/N=C(\C#N)c1ccccc1
[1]; [13]
  Potency: inconclusive: 122 µM [cytotoxic, partial curve, poor fit]
[2]
  Potency: inconclusive: 68.6 µM and active: 13.3 µM
[6]
  Potency: inconclusive: 27.5 µM [falling, partial curve, poor fit]
[9]; [14]
  activity, negative = inhibition: inconclusive: -6.72%

## CCc1cccc(C)c1N(C(=O)CCl)C(C)COC (stereo not given)
[2]
  Potency: inconclusive: 51.3 µM and inconclusive: 34.4 µM

## O=C(O)COc1ccc(Cl)cc1
[1]; [13]
  Potency: inactive
[3]
  Potency: inactive
[6]
  Potency: inconclusive: 49 µM [rising, partial curve, poor fit]
[8]
  Potency: inconclusive: 27.3 µM

## COP(=O)(OC)C(O)C(Cl)(Cl)Cl (stereo not given)
[1]; [13]
  activation: inconclusive: -6.36%
[1]; at 42.5 µM (top of the series)
  activation: inactive: -2.68%
[1]; at 92.4 µM (top of the series)
  activation: inactive: 2.72%
[6]
  Potency: inconclusive: 17.4 µM [falling, full curve]
[9]; at 35.3 µM (top of the series)
  activity, negative = inhibition: inconclusive: 4.87%
[9]; at 76.8 µM (top of the series)
  activity, negative = inhibition: inconclusive: -5.73% and inconclusive: -1.21%

Reference: PubChem BioAssay (Tox21)
